In the RNAGym collection of RNA variant scans (doi:10.7554/elife.90254):
The source gives no read counts; variants with many changes may rest on few reads.

B1: LINE1-mini (parent)
chain: GGCAGAGCUCAACACAGCGUGGCAAAGUGGCUGUGGCUAGACUGCC

Variants of: B1
Assay: self-cleavage, relative activity (ratio to wild type); higher = more cleavage; in vitro, sequencing; the parent is a self-cleaving ribozyme

Question: With GGCAUAGCUCAACAUAGCGUGGCAAAGAUGCUGUGGCUAUACUGCC [G5U C15U U28A G29U G40U] as the variant, how does the self-cleavage read?
Answer: Its self-cleavage is 0.03.

Question: Which self-cleavage does the source give for GGCAGAUCUCAACACAGCGGCGGAAAGUGGCUAUGGCUAGACUGCA [G7U U20G G21C C23G G33A C46A] here?
Answer: The self-cleavage was 0.01.

Question: With GGCAGAGCUCAAGACAGCGUGGCAAGCUGGCUGUGGCUAGACUUCC [C13G A26G G27C G44U] as the variant, how does the self-cleavage read?
Answer: Its self-cleavage is 0.04.

Question: For GGCAGAGCUCAACACAGAGUGGCAAAGUGGCUGUCGAUAUACUGCC [C18A G35C C37A G40U], which self-cleavage is on record?
Answer: Its self-cleavage is 0.09.

Question: Which self-cleavage does the source give for GACACAGCUAAACACAGCGUGGCAAGGUGGCUGUGGCUAGACGGCC [G2A G5C C10A A26G U43G] here?
Answer: Its self-cleavage is 0.

Question: With CGCAGAGCUCAACACAUUGUGGCAAAGUGGCUGUGGCUAGACUCCC [G1C G17U C18U G44C] as the variant, how does the self-cleavage read?
Answer: The self-cleavage was 0.01.

Question: Which self-cleavage does the source give for GGCAGAGCUCAACACAGCACGGCAAAGUGGCUGUUGCGAGACUGCC [G19A U20C G35U U38G] here?
Answer: Its self-cleavage is 0.01.

Question: With GGCAGAGGUCAACACAGCGUGGCAAAGUGGCUGGGGCUAGACUGAC [C8G U34G C45A] as the variant, how does the self-cleavage read?
Answer: The self-cleavage was 0.04.

Question: For GGCAGAGCUCAACACAGCGUUGCAAAGUGGCUGUGACUAGACCGCC [G21U G36A U43C], which self-cleavage is on record?
Answer: The self-cleavage was 0.08.

Question: Which self-cleavage does the source give for GGCAGAGCUCUCCACUGCGUGGCAAAGUGGCUAUGGUUAGCCUGCC [A11U A12C A16U G33A C37U A41C] here?
Answer: The self-cleavage was 0.02.

Question: For GGCAGAGCUCUACACAGCAUGGCAAAGUGGCUAUGGCUAGACUGCC [A11U G19A G33A], which self-cleavage is on record?
Answer: Its self-cleavage is 0.03.

Question: Which self-cleavage does the source give for GGCAGAGCUAAACACAGCGUCACAAACUGGCUUUGGCUAGACUGCC [C10A G21C G22A G27C G33U] here?
Answer: The self-cleavage was 0.

Question: With GGCAGAUCUCAACACAGCGUGGCAAAGUGGCUGUGGCUAGACUCCA [G7U G44C C46A] as the variant, how does the self-cleavage read?
Answer: The self-cleavage was 0.21.

Question: For GGCAGAGGUCAACACAGCGUGGCAAAGUGGCUGUGGAGAGACUGCC [C8G C37A U38G], which self-cleavage is on record?
Answer: The self-cleavage was 0.02.

Question: For GGCAGAGCUCAACCUGGCGUGGCAAAGUGGCUGUGGCUAGACUGCC [A14C C15U A16G], which self-cleavage is on record?
Answer: The self-cleavage was 0.05.

Question: With AGCAGAGCUCAGCACAGCGUGGCAGAGUGGCUGUGGCUAGAUUGCC [G1A A12G A25G C42U] as the variant, how does the self-cleavage read?
Answer: The self-cleavage was 0.02.

Question: Which self-cleavage does the source give for GGCAGAGCUCAACACAGCGUGGCAAAGUGGCUAUGGAUAGACUGUG [G33A C37A C45U C46G] here?
Answer: Its self-cleavage is 0.21.

Question: With GGCAUAGCUCAAGACAACGUGGCAAAGAGGCUGGGACUCGACUGCC [G5U C13G G17A U28A U34G G36A A39C] as the variant, how does the self-cleavage read?
Answer: The self-cleavage was 0.01.

Question: Which self-cleavage does the source give for GACAGAUCUCAACACAGCGUGGCAAAGUGGCUGUGGCUAAACUACC [G2A G7U G40A G44A] here?
Answer: Its self-cleavage is 0.12.

Question: Which self-cleavage does the source give for GGCAGAGCUCAACACAGCGUGGCAAAGUGCCUGUUGCAAGACUCCC [G30C G35U U38A G44C] here?
Answer: Its self-cleavage is 0.02.

Question: With GGCAGAUCUCAACACGGCGUGGCAAGCUGGCUGUGGCUAGACCGCC [G7U A16G A26G G27C U43C] as the variant, how does the self-cleavage read?
Answer: The self-cleavage was 0.08.

Question: With GGCAGGGCUCAACAUGGCGUGGCAAAGUGGCUGUGGCUAGACUGCC [A6G C15U A16G] as the variant, how does the self-cleavage read?
Answer: Its self-cleavage is 0.

Question: For GGCAAAGCUGAACACAGCGUGGCAAAGUGGCUGUGGCUAGACUGAC [G5A C10G C45A], which self-cleavage is on record?
Answer: The self-cleavage was 0.02.

Question: For GGCAGAGCUCAACACAGCGUGGCAAAGAGUCUGUGGCGCGACUGCC [U28A G30U U38G A39C], which self-cleavage is on record?
Answer: The self-cleavage was 0.07.

Question: For AGCAUACCUCAACACAGCAUGUCAAAGUGGCUGUGGCUAGACUGCC [G1A G5U G7C G19A G22U], which self-cleavage is on record?
Answer: Its self-cleavage is 0.22.

Question: With GGCAGACCUCAACACAGCGUGGCAAAGUGGCUAGGGCUAGACUACC [G7C G33A U34G G44A] as the variant, how does the self-cleavage read?
Answer: Its self-cleavage is 0.01.

Question: With GGCAGAGCUCAACACAGCCUGGCAAAGUUGUUGUGGCUAGACUGCC [G19C G29U C31U] as the variant, how does the self-cleavage read?
Answer: The self-cleavage was 0.1.

Question: Which self-cleavage does the source give for GGCAGAGCUUAGCACAGCGUGGGCAAAUGGCUAUGGUUAGACUGCC [C10U A12G C23G A24C G27A G33A C37U] here?
Answer: The self-cleavage was 0.

Question: Which self-cleavage does the source give for GGCAGAGUUCAACACAGCGGGGCCAAGUGGCUGUGGCUAGACUGCC [C8U U20G A24C] here?
Answer: The self-cleavage was 0.1.

Question: With GGCAGCGCUCAAGACAGCGUGUCAAUGUGUCUGUGGCUAGACUGCC [A6C C13G G22U A26U G30U] as the variant, how does the self-cleavage read?
Answer: Its self-cleavage is 0.17.

Question: With GGAAGAGCUCAACACAGCGUGGCAGAGUGGCUGUGGCUAGACUGAC [C3A A25G C45A] as the variant, how does the self-cleavage read?
Answer: The self-cleavage was 0.58.

Question: With GGCAGAGCUAAACACAGCGUGGCAAAGUGUCUGUGGCUAGACUCCC [C10A G30U G44C] as the variant, how does the self-cleavage read?
Answer: Its self-cleavage is 0.1.

Question: Which self-cleavage does the source give for GGCAGAGCUCAACAACGCGUGGAAUAGUGGCUGUGGCUAGCCUGCC [C15A A16C C23A A25U A41C] here?
Answer: Its self-cleavage is 0.06.

Question: Which self-cleavage does the source give for GGAAGAGCUCAACACAGCUCGGCAACGUGGCUGGGGCUAUACUGCC [C3A G19U U20C A26C U34G G40U] here?
Answer: The self-cleavage was 0.01.

Question: For GCCAGAGCUCAACACAGAGUGGCAAAGAGGCUGUGGCUAGACUGCC [G2C C18A U28A], which self-cleavage is on record?
Answer: Its self-cleavage is 0.03.

Question: With GGCAGAACUCAACACAGCGUGGCAAAGUGGCUGUGGAUAGACUGCG [G7A C37A C46G] as the variant, how does the self-cleavage read?
Answer: Its self-cleavage is 0.03.

Question: With GGCAGAGCUCAACACAGCAUUGAAAAGUGGCUGUGGCUAGACAGCC [G19A G21U C23A U43A] as the variant, how does the self-cleavage read?
Answer: Its self-cleavage is 0.01.

Question: With GGCAGAGCACACCACAGCGUGGCGCAGUGGCUGUAGCUAAACUGCC [U9A A12C A24G A25C G35A G40A] as the variant, how does the self-cleavage read?
Answer: Its self-cleavage is 0.04.

Question: Which self-cleavage does the source give for GGCAGUGCUCAACACGGCGGGGCAAAGUGGCUGUGGCUAGACUGCC [A6U A16G U20G] here?
Answer: The self-cleavage was 0.12.

Question: With GGCAGAGCUCAACACAGCCUAGCAAAGUGGCUGUGGCAAGACUGCC [G19C G21A U38A] as the variant, how does the self-cleavage read?
Answer: The self-cleavage was 0.19.

Question: For GAAAGAGCUCAGCACAGCGUGACAAAGUGGCUGGGGCUCGACUGCA [G2A C3A A12G G22A U34G A39C C46A], which self-cleavage is on record?
Answer: The self-cleavage was 0.02.

Question: With GGCAGUGCGCAACACAGCGUGGCAAAGUGGCUGUGGCAAUACUGCC [A6U U9G U38A G40U] as the variant, how does the self-cleavage read?
Answer: Its self-cleavage is 0.06.

Question: Which self-cleavage does the source give for GGCAGAGCUCAACAGAGCGUGUCAAAGUGGCUGUGGAUAGACUGCG [C15G G22U C37A C46G] here?
Answer: The self-cleavage was 0.01.

Question: Which self-cleavage does the source give for GGCAGAGCUUAACACAGCGUGGCACAGUGGCUGUGGCUAGUCUGCC [C10U A25C A41U] here?
Answer: The self-cleavage was 0.05.

Question: For UGCAGAGCACAACACAGCGUGGCAAGGUGGCUGUGGCUAGACUGCC [G1U U9A A26G], which self-cleavage is on record?
Answer: The self-cleavage was 0.01.

Question: For GGCAAAGCUCAACACAGCGUGGAAAAUUGACUGCGGCUAGACUGCC [G5A C23A G27U G30A U34C], which self-cleavage is on record?
Answer: Its self-cleavage is 0.05.

Question: Which self-cleavage does the source give for GGCAGAUCUCAACACAGCGUCGCAAUGUGGCUGUGGCGGGACUGCC [G7U G21C A26U U38G A39G] here?
Answer: Its self-cleavage is 0.

Question: For GGCAAAGCUCAACACAGCGUGGCAAACUGGCUGAGGCUAGACUGCC [G5A G27C U34A], which self-cleavage is on record?
Answer: The self-cleavage was 0.05.

Question: Which self-cleavage does the source give for GGCAAAGCUCGACCCAGCGUGGCAAAGUGGCUGUGGGUAGACUGCC [G5A A11G A14C C37G] here?
Answer: The self-cleavage was 0.03.

Question: With GGCAGAGCUCAAUAUAGCGUGGCAAAGUGGCUGUGGCGAUACUGCC [C13U C15U U38G G40U] as the variant, how does the self-cleavage read?
Answer: The self-cleavage was 0.01.

Question: With GGCGGAGCUCAACACAGCGUGGCAAAGUGGCUGUGAGUAGACUGCC [A4G G36A C37G] as the variant, how does the self-cleavage read?
Answer: Its self-cleavage is 0.04.

Question: With GGCAGAUCUCAACACAGCGUGGCAAAGUCGCUGUGGCUAGACUGCA [G7U G29C C46A] as the variant, how does the self-cleavage read?
Answer: Its self-cleavage is 0.12.

Question: For GACAGAGCUCAACACAGCGUGGCAAAGUGGCUGUGUCUUGAGUGCC [G2A G36U A39U C42G], which self-cleavage is on record?
Answer: Its self-cleavage is 0.05.

Question: For GGCAGAGCUCAACACACCGUCGGAAAGUGGCUGUGGCUAGACUGCC [G17C G21C C23G], which self-cleavage is on record?
Answer: Its self-cleavage is 0.57.

Question: Which self-cleavage does the source give for GGGGGAGCUCAACUCAGCGUGGCAAAGUGGCUGUGGCUCGACUGCC [C3G A4G A14U A39C] here?
Answer: The self-cleavage was 0.02.

Question: For GGCAGAGCUCAAUAGAGCGUGGUAAAGUGGCUGUGGCUAGACUGCG [C13U C15G C23U C46G], which self-cleavage is on record?
Answer: Its self-cleavage is 0.01.
